# In ChEMBL document CHEMBL1201862, “PubChem BioAssay data set” (2004):
#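 Results reflect a 48-hour exposure of cells in 96-well plates to compound at five concentrations. The concentration for 50% growth inhibition is given as GI50.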 Activity calls are given as the source filed them. No stated cut-off is given here; in the data, active = GI50 up to about 1.1 µM and inactive = higher.
# System: NCI-H322M
# Experiment: DTP human tumour cell line panel, 48 h
row,SMILES,GI50
1,COc1ccc(CC2Cc3ccccc3CCN2)cc1OC (stereo not given),inactive: 25.4 µM
2,CC(NNC(=O)c1cc[n+]([BH2-]C#N)cc1)C(F)(F)F (stereo not given),inactive: > 100 µM
3,N#CC[N+]1(Cc2ccccn2)CCCC1,inactive: > 100 µM
4,OC1(c2ccccc2)CSC2=Nc3ccccc3C3CCN1N23 (stereo not given),inactive: 19.9 µM
5,N=C(N)N/N=C/c1c(-c2cc([N+](=O)[O-])c(Cl)cc2Cl)nc2n1CCS2,inactive: 16.6 µM
6,Cn1c(=O)c2nc(/N=N/Nc3nncs3)[nH]c2n(C)c1=O,inactive: > 100 µM
7,Cc1cc2nc(N)n[n+]([O-])c2cc1C,inactive: > 100 µM
8,CCOC(=O)C(=O)N/N=C1\C(=O)Nc2ccccc21,inactive: > 100 µM
9,O=C1C=C(NCCOCCO)C(=O)c2c(O)ccc(O)c21,inactive: 26.3 µM
10,O=S(=O)(N/N=C/c1cccc(/C=N/NS(=O)(=O)c2ccccc2)c1)c1ccccc1,inactive: > 100 µM
11,S=c1[nH]c(=S)c2cc(Sc3ccc4[nH]c(=S)[nH]c(=S)c4c3)ccc2[nH]1,inactive: 47 µM
12,C=C(C)C(=O)OC1CC2=CC(CC3(C)OC3C3OC(=O)C(=C)C13)OC2=O (stereo not given),inactive: 16.9 µM
13,O=c1c2nc3ccccc3c(=O)n2ncn1-c1ccccc1Cl,inactive: > 100 µM
14,c1ccc(-c2nnc(-c3nn(-c4ccccc4)c4nc5ccccc5nc34)o2)cc1,inactive: > 100 µM
15,Cc1ccc(C2=C(c3ccccc3)C(O)(c3ccccc3)C(c3ccccc3)=C2c2ccc(C)cc2)cc1,inactive: > 100 µM
16,Cc1ccc(S(=O)(=O)SC(C)(C)C)cc1,inactive: > 100 µM
17,COC(=O)[C@@]12CC(C(C)C)[C@H]3CC(C(=O)C=C1OC)[C@H]32 (stereo not given in full),inactive: > 100 µM
18,Cc1cccc(-c2nnc3s/c(=C\c4ccc(N(C)C)cc4)c(=O)n23)c1,inactive: > 100 µM
19,CC(C)c1ccccc1[S+]([O-])c1ccccc1C(C)(C)O (stereo not given),inactive: 34.6 µM
20,CC(=O)c1ccc(Nc2nc3ccccc3c3occc23)cc1,inactive: 28.2 µM
21,Nc1nc(Cl)c(CO)c(NCC2(CO)CCC2)n1,inactive: > 100 µM
22,N/C(=N\O)N/N=C/c1cccs1,inactive: 36.4 µM
23,Cc1ccc(/C=C/C(=O)c2sc(-c3cccnc3)nc2C)cc1,inactive: > 100 µM

row,SMILES,GI50
1,Cc1cc(CN2CCCCC2)c(O)c(CN2CCCCC2)c1,inactive: > 100 µM
2,CC(NC(=O)/C(=C/c1ccccc1O)NC(=O)c1ccccc1)C(=O)O (stereo not given),inactive: 55.7 µM
3,CSC1NC(c2ccccc2)=C(C#N)C(=O)N1C1OCC(OC(C)=O)C(OC(C)=O)C1OC(C)=O (stereo not given),inactive: > 100 µM
4,COC(=O)C(/C(=N/N)C(=O)Nc1cc(Cl)ccc1Cl)c1nc2ccc([N+](=O)[O-])cc2nc1O (stereo not given),inactive: > 100 µM
5,COC(=O)c1csc([C@@H](OC(=O)[C@H](C)[C@H](CCCC(C)(Cl)Cl)OC(=O)c2csc([C@H](O)CO)n2)C(C)C)n1,inactive: 15.7 µM
6,CC(=O)OCC(OC(C)=O)C(OC(C)=O)C(/C=N/N(C(C)=O)S(=O)(=O)c1ccc(/C=C2\NC(=O)NC2=O)cc1)OC(C)=O (stereo not given),inactive: > 100 µM
7,O=C(O)CP(=O)(O)O,inactive: > 100 µM
8,COCN1C(=O)[C@@H]2C[C@@H](OC/C=C/CBr)CN2C(=O)c2ccccc21,inactive: 16.6 µM
9,CC[C@]12C=CCN3CCC4(c5cc(/N=N/c6ccccc6)c(OC)cc5N(C)[C@H]4[C@@](O)(C(=O)OC)[C@@H]1OC(C)=O)[C@@H]32 (stereo not given in full),inactive: 18 µM
10,COc1cc2c(cc1OCCCOS(C)(=O)=O)N=C[C@@H]1CCCN1C2=O,inactive: > 100 µM
11,O=[N+]([O-])c1ccc(Oc2c(Cl)cc(S(=O)(=O)N/C(=N\O)Nc3ccc(Cl)cc3)cc2Cl)c(Cl)c1,inactive: 14.9 µM
12,CC1CC(=O)C(CC(=O)O)C1C(C(=O)C(=O)Nc1c(C#N)cccc1[N+](=O)[O-])[N+](=O)[O-] (stereo not given),inactive: > 100 µM
13,CC(C)N1C(C)[C@@H](c2ccccc2)O[P@@]1(=O)CC1=CCCCC1 (stereo not given in full),inactive: > 99.5 µM
14,N/C(=N\NC(=O)c1nc2ccccc2s1)c1ccccn1,inactive: 4.74 µM
15,Cc1cnc2c(c1)C(=O)N(c1ccc(Oc3ccccc3)cc1)S2(=O)=O,inactive: > 100 µM
16,Cc1ccc(S(=O)(=O)N/N=C/C(=C/c2ccc(Cl)cc2)CC(/C=N/NS(=O)(=O)c2ccc(C)cc2)=C\c2ccc(Cl)cc2)cc1,inactive: 14.9 µM
17,CN(C(=O)c1ccncc1)c1ccccc1,inactive: > 100 µM
18,COc1ccc(/C=N/n2c(Cc3ccc(Cl)cc3)n[nH]c2=O)c(OC)c1,inactive: 40.4 µM
19,NC(=S)N/N=C1\C(=O)N(c2cccc([N+](=O)[O-])c2)C(=O)C1C(=O)Nc1cccc([N+](=O)[O-])c1 (stereo not given),inactive: > 100 µM
20,CCSC1=CC(=O)c2nc3ccccc3c3ccnc1c23,inactive: 11 µM
21,NS(=O)(=O)c1c(O)c2ccccc2oc1=O,inactive: > 100 µM
22,CCN(CC)Cc1cc(Nc2c3ccccc3nc3c4ccccc4n(C)c23)cc(CN(CC)CC)c1O,inactive: 4.01 µM
